According to article PMC7251123, “CX-5461 activates the DNA damage response and demonstrates therapeutic efficacy in high-grade serous ovarian cancer” (Nature Communications, 2020):
“And” between values parts separate entries of the source, which are not always exact repeats. Equal values may be shown once. Further values from the same series stand in other lists.

Tested on: Pol I transcription
Experiment: Inhibition of Pol I transcription: 47S precursor rRNA levels by quantitative RT-PCR after 1 h treatment
Format: cell-based, human
Details: individual replicates
Description: Fig. 1 Sensitivity of ovarian cancer (OVCA) cell lines to CX-5461. a CX-5461 doses that induce 50% growth inhibition (GI50) at 48 hours. Error bars represent mean ± standard deviation (SD). Asterisks denote mutated TP53 status. […] Information regarding each cell lines source, mean G1_50 values, SD and N values are outlined in Supplementary Table 1. […] Statistical analysis was performed using a two-sided Mann–Whitney test. Error bars represent mean ± SD. c Baseline rDNA transcription rates of OVCA cell lines (listed in (d)), as determined by quantitative real-time PCR (qRT-PCR) analysis using primers specific to the external transcribed spacer 5’ETS (+413–521 bp) relative to the transcription start site (TSS). Expression levels in each cell line were normalised to Vimentin mRNA and expressed as fold change relative to TOV112D cells. Each dot represents the mean value of n = 3 biologically independent experiments per cell line (Individual data points are provided in Supplementary Data 4). Error bars represent mean ± SD. Statistical analysis was performed using a two-tailed unpaired t test. d Dose-response curves of 47S precursor rRNA levels measured by quantitative RT-PCR. OVCA cell lines were treated with vehicle or increasing drug concentrations of CX-5461 (0.001, 0.01, 0.03, 0.1, 0.3, 1 and 3 μM) for 1 h before RNA was harvested. Expression levels were normalised to Vimentin mRNA and expressed as fold change relative to vehicle-treated controls. Shown are the mean of n = 3 independent biological experiments for each cell line. (Individual data points are provided in Supplementary Data 4). e The mean inhibitory concentration values that led to 50% transcription inhibition (IC50) (of n = 3 biologically independent experiments for each cell line) from D are presented (Individual data points are provided in Supplementary Data 4). Error bars represent mean ± SD. Statistical analysis was performed using a two-sided Mann–Whitney test.
For Reverse-transcription qPCR analysis, cells were lysed, RNA extracted, and first-strand cDNA synthesized using random hexamer primers (Promega, C1181) and Superscript III (Invitrogen,18080044). Quantitative PCR (qPCR) was performed in duplicate using the FAST SYBR Green dye (Applied Biosystems, 4385610) on the StepOnePlus real-time PCR system (Applied Biosystems). Primer sequences are listed in (Supplementary Table 3).
Dose-response curves of 4 7S precursor rRNA levels (Figure 1D) measured by quantitative RT-PCR after 1h treatment. Expression levels
were normalised to Vimentin mRNA and expressed as fold change relative to vehicle-treated controls.
IC50 doses (Figure 1E) were determined from dose response curves in Figure 1D
using GraphPad Prism version 8.

SMILES: Cc1cnc(CNC(=O)c2c(=O)c3ccc(N4CCCN(C)CC4)nc3n3c2sc2ccccc23)cn1 [CX-5461]
- 47S precursor rRNA level, fold change relative to vehicle-treated controls (2008, CX-5461 0.00000001 M): 1.25 and 0.8749 and 0.5461
- 47S precursor rRNA level, fold change relative to vehicle-treated controls (2008, CX-5461 0.00000003 M): 1.218 and 0.7539 and 0.7017
- 47S precursor rRNA level, fold change relative to vehicle-treated controls (2008, CX-5461 0.0000001 M): 0.3766 and 0.4551 and 0.3116
- 47S precursor rRNA level, fold change relative to vehicle-treated controls (2008, CX-5461 0.0000003 M): 0.3413 and 0.1927 and 0.2865
- 47S precursor rRNA level, fold change relative to vehicle-treated controls (2008, CX-5461 0.000001 M): 0.126 and 0.1434 and 0.2615
- 47S precursor rRNA level, fold change relative to vehicle-treated controls (2008, CX-5461 0.000003 M): 0.1693 and 0.1357 and 0.1227
- 47S precursor rRNA level, fold change relative to vehicle-treated controls (2008, CX-5461 1E-09 M): 0.766 and 1.143 and 0.9219
- 47S precursor rRNA level, fold change relative to vehicle-treated controls (COLO704, CX-5461 0.00000001 M): 1.588 and 1.201 and 0.9746
- 47S precursor rRNA level, fold change relative to vehicle-treated controls (COLO704, CX-5461 0.00000003 M): 1.145 and 1.011 and 0.8795
- 47S precursor rRNA level, fold change relative to vehicle-treated controls (COLO704, CX-5461 0.0000001 M): 1.046 and 0.7198 and 0.4937
- 47S precursor rRNA level, fold change relative to vehicle-treated controls (COLO704, CX-5461 0.0000003 M): 0.543 and 0.394 and 0.1851
- 47S precursor rRNA level, fold change relative to vehicle-treated controls (COLO704, CX-5461 0.000001 M): 0.1904 and 0.2302 and 0.15
- 47S precursor rRNA level, fold change relative to vehicle-treated controls (COLO704, CX-5461 0.000003 M): 0.2758 and 0.2069 and 0.158
- 47S precursor rRNA level, fold change relative to vehicle-treated controls (COLO704, CX-5461 1E-09 M): 1.389 and 1.175 and 0.9568
- 47S precursor rRNA level, fold change relative to vehicle-treated controls (ES2, CX-5461 0.00000001 M): 1.444 and 0.8594 and 1.111
- 47S precursor rRNA level, fold change relative to vehicle-treated controls (ES2, CX-5461 0.00000003 M): 1.008 and 0.7338 and 0.7027
- 47S precursor rRNA level, fold change relative to vehicle-treated controls (ES2, CX-5461 0.0000001 M): 0.3619 and 0.4772 and 0.4706
- 47S precursor rRNA level, fold change relative to vehicle-treated controls (ES2, CX-5461 0.0000003 M): 0.1013 and 0.1961 and 0.2168
- 47S precursor rRNA level, fold change relative to vehicle-treated controls (ES2, CX-5461 0.000001 M): 0.06644 and 0.07582 and 0.1269
- 47S precursor rRNA level, fold change relative to vehicle-treated controls (ES2, CX-5461 0.000003 M): 0.06957 and 0.08958 and 0.2275
- 47S precursor rRNA level, fold change relative to vehicle-treated controls (ES2, CX-5461 1E-09 M): 1.154 and 0.9992 and 1.133
- 47S precursor rRNA level, fold change relative to vehicle-treated controls (IGROV1, CX-5461 0.00000001 M): 0.8496 and 0.8934 and 0.8387
- 47S precursor rRNA level, fold change relative to vehicle-treated controls (IGROV1, CX-5461 0.00000003 M): 0.4119 and 0.4259 and 0.6157
- 47S precursor rRNA level, fold change relative to vehicle-treated controls (IGROV1, CX-5461 0.0000001 M): 0.2872 and 0.5394 and 0.677
- 47S precursor rRNA level, fold change relative to vehicle-treated controls (IGROV1, CX-5461 0.0000003 M): 0.05697 and 0.2582 and 0.3609
- 47S precursor rRNA level, fold change relative to vehicle-treated controls (IGROV1, CX-5461 0.000001 M): 0.1021 and 0.1132 and 0.1982
- 47S precursor rRNA level, fold change relative to vehicle-treated controls (IGROV1, CX-5461 0.000003 M): 0.08732 and 0.1037 and 0.1488
- 47S precursor rRNA level, fold change relative to vehicle-treated controls (IGROV1, CX-5461 1E-09 M): 0.6477 and 0.957 and 1.1
- 47S precursor rRNA level, fold change relative to vehicle-treated controls (JHOM1, CX-5461 0.00000001 M): 1.161 and 1.172 and 1.101
- 47S precursor rRNA level, fold change relative to vehicle-treated controls (JHOM1, CX-5461 0.00000003 M): 0.8692 and 1.051 and 0.8577
- 47S precursor rRNA level, fold change relative to vehicle-treated controls (JHOM1, CX-5461 0.0000001 M): 0.6535 and 0.9882 and 0.8497
- 47S precursor rRNA level, fold change relative to vehicle-treated controls (JHOM1, CX-5461 0.0000003 M): 0.4896 and 0.5342 and 0.5547
- 47S precursor rRNA level, fold change relative to vehicle-treated controls (JHOM1, CX-5461 0.000001 M): 0.2376 and 0.3036 and 0.2843
- 47S precursor rRNA level, fold change relative to vehicle-treated controls (JHOM1, CX-5461 0.000003 M): 0.1492 and 0.09725 and 0.07588
- 47S precursor rRNA level, fold change relative to vehicle-treated controls (JHOM1, CX-5461 1E-09 M): 0.9272 and 0.955 and 0.9965
- 47S precursor rRNA level, fold change relative to vehicle-treated controls (Kuramochi, CX-5461 0.00000001 M): 0.7271 and 1.527 and 1.169
- 47S precursor rRNA level, fold change relative to vehicle-treated controls (Kuramochi, CX-5461 0.00000003 M): 0.6776 and 1.072 and 0.895
